Out of some 150,000 compounds screened, about 540 (0.36%) showed an effect of 50% or more. The list shows a part of the results.
Tested on: Plasmodium falciparum
Assay: Primary screen in NF54 nanoGlo assay, in single point, at 2uM, 72h; a lower Z score goes with more inhibition
Assay type: functional, Erythrocyte
Conditions: timepoint 72 hour

SMILES	% Inhibition	Z score
Cc1cc(C(=O)N2CC[C@H](N(C)C)C2)sc1-c1cccc(Cl)c1	-1%	0.11
CCC1(CC)C(NC(=O)N2CCS(=O)(=O)C(C)C2C)C(C)C1OC (stereo not given)	-1%	0.12
COC[C@H]1COCCN1C(=O)c1ncc2c(F)cccn12	-10%	1.23
CCCn1nnnc1CNc1cccc2c1OCCO2	-6%	0.79
CN(C)c1ccc(CCC(=O)N2CCC[C@](C)(C#N)C2)cc1	-13%	1.51
Cc1cc(C)nc(-n2cc(C(=O)N3CCC[C@H](CCC(=O)O)C3)c(C(C)C)n2)n1	1%	-0.16
O=S(=O)(c1cccc(Cl)c1)N1CC[C@H](CN2CCOCC2)C1	-13%	2.6
N#Cc1c(CN2C(=O)NC3(CCCCCCC3)C2=O)cn2ccccc12	-10%	1.42
Cc1nn(C)c(C)c1CCN/C(=N\c1ccc(F)cc1)NC(=O)c1ccc(F)c(F)c1	-6%	1.14
CCCCc1nc(C)c(C#N)c2cc(OC)c(OC)cc12	-3%	0.43
Cc1ccc(CCNC(=O)N(C)C[C@H](C)c2nccs2)cn1	-5%	0.4
Cc1cc(NC(=O)c2c(F)cccc2F)sn1	-17%	2.85
O=C(C1CC(=O)N(c2cn[nH]c2)C1)N1CCC(Cc2ccc(F)cc2)C1 (stereo not given)	-6%	0.71
O[C@H]1CCc2cnn(Cc3nc(C(F)(F)F)cs3)c2C1	-7%	0.84
CCOc1ccc(CN2CCc3nc(N4CCC(C)CC4)ncc3C2)cc1	-12%	1.68
CC(NC(Cc1ccccc1)C(=O)N1CCCCC1)c1cnccn1 (stereo not given)	9%	-0.79
Cc1cc(S(=O)(=O)NC(=O)c2cnn(C(C)C)c2C)c(C)s1	-13%	1.22
O=C(NCCc1ccc(Cl)s1)Nc1cn[nH]c1	-12%	2.34
Cc1cc(C)n(CCN(C)C(=O)c2cccc3c2NCCC3)n1	-9%	1.74
C[C@@H](CC(=O)N1CCC(C#N)CC1)C1CC1	-13%	1.17
CCCn1cnnc1CNCc1nc(C)c(C)n1C	-1%	0.14
C[C@@H](CN(C)CCO)NCc1ccc(C#N)cc1	-4%	0.5

SMILES	% Inhibition	Z score
Cc1cc(NC2CN(c3ccncn3)C2)nc(C2CCC2)n1	-2%	0.27
COc1ccccc1OC1(C(=O)O)CCN(c2nnc(C(C)C)s2)CC1	-11%	1.91
O=C(c1ccccc1F)N(CCN1CCOCC1)C[C@H]1CN(Cc2c(F)cccc2F)CCO1	-5%	0.5
Cc1cc2n(n1)CCN(Cc1ccc(Cl)o1)C2	-10%	1.47
CC1CC(=O)N(C)c2ccc(NC(=O)N3CCc4ccccc4C3C(C)C)cc21 (stereo not given)	2%	-0.35
c1ccc(Nc2nc(-c3ccccc3)cc(-c3ccccc3)n2)cc1	37%	-4.83
CCOC(=O)C[C@H]1COCCN1C(=O)c1cn(CCC2CCCCC2)nn1	10%	-1.2
C[C@H]1CN(C(=O)Cc2ccc(F)cc2Cl)C[C@]1(O)C1CC1	-3%	0.43
COc1ccccc1-c1c(C)nn2c(=O)c3c([nH]c12)CCCC3	-13%	2.4
CCCCC(=O)N1CCC2(CC1)N[C@H](C(=O)N1CCCC1)Cc1[nH]cnc12	-2%	0.27
Cc1cnc(C2CC2)n1[C@H]1CCN(C(=O)CCc2ccccc2)C1	-15%	1.92
COCCn1ccnc1-c1nc2c(cnn2Cc2cccnc2)[nH]1	-7%	1.08
Cc1cc(C)n(CC(=O)NCc2ccc(Cl)cc2)c(=O)c1-c1nc(-c2cccc(Cl)c2)no1	-15%	1.47
CC1CCCCN1C(=O)CC1Cn2ncc(-c3ccc(Cl)cc3)c2NC1=O (stereo not given)	-17%	1.95
O=S(=O)(Cc1ccccc1)NCC[C@H](O)C1CC1	-6%	0.92
CCOc1ccc(Cl)cc1CN(C)C(=O)N[C@H]1COC[C@@H]1O	-5%	0.96
CC(C)Cc1ccc(S(=O)(=O)N2CCC[C@H]2c2nnc(C(=O)Nc3ccc4c(c3)OCO4)s2)cc1	-8%	1.56
CCc1nsc(NCCc2ccccc2N2CCOCC2)n1	3%	-0.62
C=CCOc1ccccc1CN(CC1CCN(CCOC)CC1)C[C@H]1CCCO1	0%	0.04
COc1ccc(C2=CCN(CC(=O)Nc3ccc(F)cc3F)C2)cc1	27%	-3.05
CC(C)(C)O[C@@H](C(=O)N1CC2(CNC(=O)O2)C1)c1ccccc1	4%	-0.46
O=S(=O)(NCc1ccc(N2CCCC2)cc1)c1cccc(Br)c1	-4%	0.6

SMILES	% Inhibition	Z score
CNCC#CCOc1cccc(C)c1C	-6%	0.63
Cn1cc(CN2CCCC[C@@H]2CCc2cccc(O)c2)cc1C#N	-17%	1.46
COc1nc2c(cc1CN1CC[C@]3(OC)CC[C@@H](O)C[C@H]13)C(=O)N(C(C)C)C2	13%	-1.72
OCC[C@H]1CN(Cc2c(Cl)cncc2Cl)CCN1Cc1ccco1	-10%	1.31
C#CCN1CCN(Cn2nnc3ccccc3c2=O)CC1	-3%	0.25
Cc1cc(Br)cc(C)c1OCCOCCN(C)C	-3%	0.47
COc1ccc(NC(=O)CN2CCCC[C@@H]2C)cc1S(=O)(=O)N1CCCCC1	-8%	1.53
CC(C)(C)CN1C(=O)C2(CCN(CC3CC3)CC2)Nc2ccccc21	-9%	1.76
CC(=O)N[C@H]1CN(Cc2cc(C(N)=O)oc2C(C)(C)C)C[C@@H]1C1CC1	-11%	1.92
Cc1cccc(CN(Cc2ccccn2)Cc2n[nH]c3c2COCC3)c1	2%	-0.27
CCn1c(=O)c(-c2nc(-c3ccc(OC(C)C)cc3)no2)c(O)c2ccccc21	-14%	1.89
CCN(CCC#N)C(=O)Cn1ccnc1C(C)C	-9%	1
COCC(=O)N[C@@H](Cc1ccccc1)c1nc2ccccc2n1Cc1ccccc1F	6%	-0.6
Cc1nccn1-c1ccnc(C(=O)NCc2nnc(C3CC3)s2)c1	-7%	0.94
NC[C@H]1CCCN1C(=O)c1cccc(-n2nccc2C(F)(F)F)c1	12%	-1.14
COc1ccc(N2CCN(C(=O)CN(C)c3nnc(N4CCCC4=O)s3)CC2)cc1	-5%	0.88
Cc1ccc(S(=O)(=O)NCc2ccc(C(=O)Nc3cnc4ccccc4c3)cc2)cc1C	-14%	2.07
CCCc1nc(NCCc2n[nH]c(N)n2)no1	3%	-0.54
CC[C@@]1(C)CCN(C(=O)CS(=O)(=O)CC)C1	-5%	0.77
CC(=O)Oc1c(-c2ccc(NS(=O)(=O)c3ccc(C)cc3)cc2)c(-c2ccc(N(C)C)cc2)nn1-c1ccc(F)cc1	2%	-0.24
CC(C)CC(=O)Nc1nnc([C@H]2CC(=O)N(c3ccc(Cl)cc3)C2)o1	-3%	0.37
O=C(CCn1cnc2cc(S(=O)(=O)N3CCCCC3)ccc21)NCc1ccc(F)cc1	-18%	1.83

SMILES	% Inhibition	Z score
Cc1cc(C)c(NC(=O)OCc2cccc3cccnc23)c(C)c1	88%	-13.23
O=C(Nc1ccc(Cl)c(Cl)c1)c1cc(Br)ccc1NS(=O)(=O)c1ccc(Br)c2nsnc12	-10%	1.29
CCC(=O)N1CCC(N2C[C@H](OCC3CC3)C23CCOCC3)CC1	-7%	1.32
COc1cccc2c1OC[C@H](NC(=O)c1cnc(N(C)C)cn1)C2=O	-2%	0.3
COCC(=O)NC[C@H](O)c1c(Cl)cccc1Cl	-1%	0.18
c1cc2c(cc1[C@H]1NCCCCCCO1)OCO2	40%	-5.19
CCN(CC)C(=O)Cn1nc(C(F)(F)F)c2cnccc21	16%	-1.58
CC(C)(NC(=O)c1cccs1)C(=O)NC1CCCCCC1	-5%	0.7
CC(C)n1cc(NC(=O)NC[C@H]2c3ccccc3C(=O)N2C)cn1	-16%	2.29
Fc1ccc2ncnc(N3CCN(c4cc(C(F)(F)F)ncn4)CC3)c2c1	-4%	0.53
CCN(CC1CCOCC1)C(=O)N[C@@H](C)c1nnc(N)s1	-2%	0.3
N#Cc1ccc(N2CCN(C(=O)CCCc3ccccc3)CC2)cn1	-3%	0.3
CC[C@@H](Cn1ccnc1)NC(=O)Nc1cc(C)nn1-c1ccc(OC)cc1	-3%	0.41
CC1CCN(S(=O)(=O)N2CCN(C(=O)c3ccccc3F)CC2)CC1	-6%	1.15
COc1ccccc1CN(Cc1cn(CCC(N)=O)c2ccccc12)C1CC1	1%	-0.11
Cc1noc(C)c1C(=O)N[C@@H](CC(C)C)C(=O)OCc1ccccc1	37%	-5.34
Cn1ncc2c(=O)n(C[C@H](O)COc3ccccc3)cnc21	-7%	1.39
CCC1CN(S(=O)(=O)c2ccc(C#N)nc2)C1	-11%	1.17
CCc1ncc(NC(=O)[C@H]2CC2(C)C)cn1	2%	-0.39
